Test results reported in PubChem BioAssay AID2546 (National Center for Advancing Translational Sciences (NCATS), 2010).
The whole screen tested about 310,000 compounds, of which about 11,000 (3.5%) were called active. The inconclusive results got no clear call from the source; some entries with a clear call stand among them for comparison. Calls come from the whole dose curve; as a rule, active = well fitted inhibition curve with a large enough effect; inconclusive = small, poorly fitted or top-dose-only effect, or effect the other way; inactive = flat fitted curve, though single readings scatter. Potencies of inconclusive entries are left out as doubtful fits.

Assay: VP16 counterscreen qHTS for inhibitors of ROR gamma transcriptional activity;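 note: Gal4-VP16 expression switched on by copper sulfate through the metallothionein promoter; nearly all actives have a fitted effect of over 50% in size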
Conditions: Drosophila S2 Gal4-VP16 UAS-luciferase, luminescence, 20 h; activity, negative = inhibition: at 53.6 µM (top of the series)
% is set by controls: 0 for no effect and ±100 for the full control effect; potency is the fitted concentration of half-maximal effect; tags give direction and shape of the fitted curve.

Row | SMILES | Potency | activity, negative = inhibition
1 | N#Cc1c(NC(=O)CCCC(=O)O)sc2c1CCCCC2 | inconclusive [inhibitor, full curve, poor fit] | –
2 | COC(=O)c1c(NC(=S)NN2CCOCC2)sc2c1CCCC2 | active: 3.98 µM | –
3 | CCc1c(C)nc2cc(-c3ccc(OC)c(OC)c3)nn2c1N1CCCC1 | inconclusive [inhibitor, partial curve] | –
4 | O=C(N/N=C\c1ccc(F)cc1)c1ccc(F)cc1 | – | inactive: -6.49%
5 | Cc1ccc2nc(-c3ccc(NC(=O)c4cccnc4)cc3)oc2c1 | active: 1.26 µM | –
6 | O=C(COC(=O)Cn1cnc2ccccc2c1=O)Nc1ccc(Cl)cc1 | – | inactive: -2.93%
7 | CN1CCN(c2cc3c(c4c2[nH]c2ccccc24)C(=O)CC(C)(C)C3)CC1 | inconclusive [inhibitor, single point] | –
8 | O=C(c1ccc([N+](=O)[O-])c(CS(=O)(=O)c2ccc(Cl)cc2)c1)N1CCCCC1 | – | inactive: -17.1%
9 | Cc1cccc(N2CCN(C(=O)CCNS(=O)(=O)c3cccs3)CC2C)c1 (configuration not stated) | inconclusive [activator, partial curve, poor fit] | –
10 | Nc1ccc(C(=O)Nc2cccc(N)c2)cc1 | – | inactive: -17.9%
11 | O=C(COC(=O)c1c2c(nc3ccccc13)CCCC2)Nc1ccc2c(c1)OCO2 | – | inactive: -9.7%
12 | COc1ccc(-c2cc(C(=O)N3CCN(c4ccccn4)CC3)c3ccccc3n2)cc1 | – | inactive: -17.2%
13 | COCCNC(=S)N/N=C(\C)c1ccc(O)cc1 | inconclusive [inhibitor, single point] | –
14 | S=C(NCCN1CCOCC1)N/N=C/c1ccccc1 | inconclusive [inhibitor, single point] | –
15 | c1ccc(C[n+]2csc3ccccc32)cc1 | inconclusive [inhibitor, partial curve] | –
16 | CCn1c(-c2ccccc2)c(C(=O)CCl)c2ccccc21 | inconclusive [inhibitor, single point] | –
17 | COc1ccc(C(=O)Nc2ccc(N3CCCC3)cc2)cc1OC | – | inactive: 13.8%
18 | COc1cc(/C=N/Nc2cccc3cccnc23)cc(OC)c1O | inconclusive [inhibitor, single point] | –
19 | COc1ccccc1C(=O)OC(C)CN1CCN(C)CC1 (configuration not stated) | – | inactive: -12.1%
20 | O=C(CCN1C(=O)/C(=C\C=C\c2ccccc2)SC1=S)Nc1cccc(C(=O)O)c1 | inconclusive [inhibitor, single point] | –
21 | CC(C)C1=NN(C(=O)c2cccnc2)C(O)(C(F)(F)F)C1 (configuration not stated) | inconclusive [inhibitor, partial curve] | –
22 | O=S(=O)(NCc1ccncc1)c1ccccc1 | active: 15.8 µM | –
23 | Cc1ccc(-c2csc(NC(=O)c3cnccn3)n2)cc1C | inconclusive [inhibitor, single point] | –
24 | CC1CCc2c(C(=O)Oc3cccc(-n4cnnn4)c3)csc2C1 (configuration not stated) | inconclusive [inhibitor, single point] | –
25 | COc1ccc(/C=C/c2nc(C#N)c(NCCN(C)C)o2)cc1OC | – | inactive: -14.5%
26 | CCOC(=O)N/N=C1/C[C@@H](O)[C@@H](O)[C@@H]2[C@@H]3C(=O)N(CC)C(=O)[C@H]3CC[C@@H]12 | – | inactive: -0.336% [at 10 µM]

Row | SMILES | Potency | activity, negative = inhibition
27 | COc1ccc(/C=C(\C#N)C(=O)NCc2cccs2)cc1OC | – | inactive: -0.198%
28 | COc1c(C)cccc1C(=O)Nc1ccc(N2CCN(C(=O)c3ccccc3C)CC2)cc1 | inconclusive [inhibitor, single point] | –
29 | O=C(/C=C/c1ccccc1)NC(=S)Nc1ccc(N2CCOCC2)c(Cl)c1 | inconclusive [inhibitor, partial curve] | –
30 | CCCn1nnnc1NC(=O)CSc1ccc(Cl)cc1 | active: 2.24 µM | –
31 | COc1ccccc1/C=C/C=N/NC(=O)CN1CCN(S(=O)(=O)c2ccc(C)cc2)CC1 | inconclusive [inhibitor, single point] | –
32 | C/C(=N\NC(=O)c1cc(Br)ccc1O)c1ccccn1 | active: 0.282 µM | –
33 | CC(=O)Nc1cc(C(F)(F)F)ccc1Oc1cccc(Br)c1 | active: 12.6 µM | –
34 | COc1ccc(/C=C/C(=O)c2ccc(O)cc2)cc1 | active: 7.08 µM | –
35 | O=C(c1ccccc1)N1CCN(C(=O)N2CCOCC2)CC1 | – | inactive: 5.12%
36 | Cc1onc(-c2ccccc2Cl)c1C(=O)Nc1ccccc1 | – | inactive: -1.16%
37 | Cc1cc(N2CCCC2)ccc1NC(=O)COc1cccc(C(F)(F)F)c1 | inconclusive [inhibitor, partial curve] | –
38 | COc1ccccc1NC(=O)CSC1CC(=O)N(c2ccc3c(c2)OCO3)C1=O (configuration not stated) | active: 5.01 µM | –
39 | COCCNc1ncnc2ccc(-c3ccccc3C)cc12 | inconclusive [inhibitor, single point] | –
40 | CCc1ccc(-c2cc(C(=O)O)c3ccccc3n2)s1 | inconclusive [inhibitor, partial curve] | –
41 | O=C(NCc1ccco1)c1cccnc1-c1nc2ccccc2s1 | inconclusive [activator, single point] | –
42 | C=C(C)c1cccc(C(C)(C)NC(=O)NCc2ccncc2)c1 | inconclusive [inhibitor, single point] | –
43 | Cc1cccc(OCc2n[nH]c(=S)n2C2CCCCC2)c1 | active: 1.26 µM | –
44 | CCOc1cccc(C(=O)NC(=S)Nc2ccc(Cl)cc2C(=O)O)c1 | active: 3.55 µM | –
45 | Cc1ccn2c(C(=O)N/N=C/c3ccc(CNC(=O)C(=O)Nc4ccc(C)c(C)c4)o3)c(C)nc2c1 | – | inactive: 1.67%
46 | COc1cccc(-c2cc(=O)c3cc(O)ccc3o2)c1 | inconclusive [inhibitor, single point] | –
47 | COC(=O)c1ccc(COc2cc(O)c3c(c2)OC(C)(C)CC3=O)cc1 | inconclusive [inhibitor, full curve] | –
48 | S=C(NCc1ccc(Cl)cc1)NN1CCOCC1 | inconclusive [inhibitor, single point] | –
49 | Cc1cc(=O)n(CC(=O)Nc2cc(Cl)ccc2C)c(C(C)C)n1 | – | inactive: -1.28%
50 | CCOC(=O)C1=C(C)NC(=S)NC1c1cccs1 (configuration not stated) | inconclusive [inhibitor, single point] | –
51 | O=C(O)c1cc(-c2ccc(/C=N/Nc3ccc([N+](=O)[O-])cn3)o2)ccc1Cl | inconclusive [activator, single point] | –
52 | Cc1c(Cl)cccc1NC(=S)N1CCc2ccccc2C1 | inconclusive [inhibitor, single point] | –

Row | SMILES | Potency | activity, negative = inhibition
53 | O=C(CN1CCCCC1)NNc1nc(-c2ccccc2)c2cc(Br)ccc2n1 | active: 1.58 µM | –
54 | N/C(=N\N=C\c1ccc2c(c1)OCO2)c1nonc1N | inconclusive [inhibitor, partial curve] | –
55 | COc1cc(/C=C2\SC(=S)N(CCC(=O)Nc3ccc(O)cc3)C2=O)cc(OC)c1OC | – | inactive: 7.85%
56 | COc1cc(N/N=C/c2ccccc2O)ncn1 | active: 7.08 µM | –
57 | CCOC(=O)C(=O)/C(=C\N(C)C)c1onc(-c2c(Cl)cccc2Cl)c1C(=O)OC | – | inactive: 1.06%
58 | OCCC1CN(C2CCN(c3ccccc3F)CC2)CCN1Cc1ccccc1 (configuration not stated) | – | inactive: -5.5%
59 | CCOC(=O)c1ccc(NC(=O)N2C3CCCC2CC(NC(C)=O)C3)cc1 (configuration not stated) | – | inactive: -29.2%
60 | CN(C)c1ccc(/C=C2\NC(=S)N(Cc3ccccc3)C2=O)cc1 | active: 11.2 µM | –
61 | COc1ccc(NC(=O)c2sc3nc(N4CCOCC4)c4c(c3c2N)CC(C)(C)OC4)cc1 | – | inactive: 2.74%
62 | NS(=O)(=O)c1ccc(N/N=C/C=C/c2ccccc2[N+](=O)[O-])cc1 | inconclusive [activator, full curve] | –
63 | O=c1c2ccccc2ncn1/N=C/c1ccccc1 | inconclusive [inhibitor, single point] | –
64 | CC(C)CN1C(=O)/C(=C(/C#N)C(=O)NC2CCCCC2)c2ccccc21 | inconclusive [inhibitor, single point] | –
65 | COc1cc(Cn2nnc3ccccc32)cc(Br)c1O | – | inactive: 7.86%
66 | COc1ccc(-c2nnc(SCC(=O)c3[nH]c(C)c(C(C)=O)c3C)o2)cc1 | – | inactive: -8.62%
67 | CCOc1ccc(N(C)S(=O)(=O)c2ccc3[nH]cc(C(=O)NCCOC)c(=O)c3c2)cc1 | inconclusive [inhibitor, single point] | –
68 | Cc1csc(NC(=O)c2cc(-c3ccccc3)nc3ccccc23)n1 | inconclusive [inhibitor, single point] | –
69 | CCCNC(=S)NNC(=O)c1cc(C2CC2)nc2ccccc12 | active: 10 µM | –
70 | O=C1N/C(=N\N=C\c2ccco2)SC1Cc1ccc(F)cc1 (configuration not stated) | active: 4.47 µM | –
71 | COc1ccc(/C=N/OC/C(O)=C(\C#N)c2nc3ccccc3[nH]2)cc1OC | inconclusive [activator, single point] | –
72 | O=C1/C(=C/N(C(=O)c2ccco2)c2ccc(Cl)cc2)Sc2ccccc21 | inconclusive [inhibitor, single point] | –
73 | COc1cccc(CNC(=S)Nc2cc(OC)ccc2OC)c1 | inconclusive [inhibitor, single point] | –
74 | COc1cccc(-c2cn3nc4c(nc3n2)CCCC4)c1 | inconclusive [inhibitor, single point] | –
75 | COc1cccc(Cn2cnc3c(NS(=O)(=O)c4cc(Cl)ccc4Cl)c(C)c(C)cc32)c1 | inconclusive [inhibitor, single point] | –
76 | CCCCOC(=O)c1sc2nc(N3CCOCC3)c3c(c2c1N)CC(C)(C)OC3 | – | inactive: -9.8%
77 | CCCCc1ccc(NC(=S)NCCc2ccc(F)cc2)cc1 | active: 5.62 µM | –
